Screen size: about 48,000 compounds; about 550 (1.1%) were called active. About 4% were inconclusive and are not listed. Rule as the data show it: active = potency below about 15 µM; inconclusive = mostly about 16 µM to 33 µM; inactive = weaker than that. The list shows a part of the results.
target: Lysosomal acid glucosylceramidase (Homo sapiens) (UniProt P04062); assay: Glucocerebrosidase; details: purified enzyme, resorufin glucoside fluorescence (screen aimed at inhibitors), 20 min; series mostly up to 77 µM;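 also: the screen sought inhibitors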
Excerpt: NCGC Assay Overview: Beta-glucocerebrosidase catalyzes the hydrolysis of beta-glucocerebroside to glucose and ceramide. The inherited deficiency of beta-glucocerebrosidase results in Gaucher disease, which is characterized by a wide variety of symptoms including hepatosplenomegaly, anemia, thrombocytopenia, bony lesions and bone marrow infiltration with characteristic storage cells, known as Gaucher cells. There are also forms of the disorder affecting the central nervous system. Patients with the same genotypes can manifest with diverse clinical presentations and it is believed that improper folding and trafficking of beta-glucocerbrosidase may contribute to the phenotypes observed. Low molecular weight molecules, acting as chaperones, may potentially restore trafficking of misfolded beta-glucocerebrosidase from the endoplasmic reticulum to the lysosomes, thereby enhancing functional lysosomal beta-glucocerebrosidase activity. Using normal beta-glucocerebrosidase, an assay was developed to screen for small molecule inhibitors that could potentially act as molecular chaperones on the mutant forms [developed with NIH investigator Dr. Ellen Sidransky's laboratory]. Two pro-fluorescent substrates were chosen for two screens against a small molecule library. One beta-glucocerebrosidase assay used Resorufin beta-D-Glucopyranoside (Marker Gene Technology Inc.), generating a red fluorescent product. The second assay used Fluorescein di-beta-D-Glucopyranoside, generating a blue fluorescent product. […] The IC50 values of Conduritol B Epoxide, a known glucocerebrosidase inhibitor, were determined to be 87.5 uM and 117 uM, respectively. The use of two difference pro-fluorescent substrates in the screens helped to eliminate false positives. All compounds were screened in a titration series resulting in AC50s (e.g., IC50s or EC50s).
NCGC Assay Protocol Summary: Both enzyme and substrate were diluted in buffer composed of 50mM citric acid/KH2PO4, 10mM sodium taurocholate and 0.01% tween-20 at pH 5.9. The final concentration of the enzyme was 0.2 nM in both assays. The compound library was titrated in 7 to 15 concentrations for the primary screens with a final concentration ranging from 0.6 nM to 50 uM. This particular assay protocol is for the "red" substrate, and it was performed in 1536-well plate format as follows: Red fluorescence substrate assay: 2 uL enzyme 23 nL compound 1 uL substrate (final concentration of 30 uM) Incubate at room temperature (RT) for 20 minutes Read the plate in Viewlux plate reader (Ex=548(7) and Em=600(10)).
Potency is read from the fitted curve at half-maximal effect.

Sequence of UniProt P04062 (P04062 whole entry, looked up): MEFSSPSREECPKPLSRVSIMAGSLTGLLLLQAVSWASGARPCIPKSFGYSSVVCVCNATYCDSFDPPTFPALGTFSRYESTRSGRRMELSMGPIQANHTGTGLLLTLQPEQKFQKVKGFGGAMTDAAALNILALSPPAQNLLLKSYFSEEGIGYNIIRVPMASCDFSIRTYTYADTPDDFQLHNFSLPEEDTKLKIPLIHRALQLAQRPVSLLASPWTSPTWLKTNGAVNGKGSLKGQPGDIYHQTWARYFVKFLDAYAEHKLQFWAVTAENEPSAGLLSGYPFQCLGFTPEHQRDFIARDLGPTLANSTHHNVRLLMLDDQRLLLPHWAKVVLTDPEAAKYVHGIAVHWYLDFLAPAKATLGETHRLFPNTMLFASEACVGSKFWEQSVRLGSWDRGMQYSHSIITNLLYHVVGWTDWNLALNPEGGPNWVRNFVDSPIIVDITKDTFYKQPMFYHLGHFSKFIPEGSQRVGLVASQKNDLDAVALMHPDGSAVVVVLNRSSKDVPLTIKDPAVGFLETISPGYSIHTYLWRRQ

Potency, inactive:
CCc1nnc(NC(=O)CN2C(=O)c3ccccc3S2(=O)=O)s1 > 76.9 µM
O=C(O)C1C2C=CC(O2)C1C(=O)NCCC1=CCCCC1 (centres undefined) > 76.9 µM
COc1ccc2oc(=O)c(C(=O)NCC3CCCO3)cc2c1 (centres undefined) > 76.9 µM
CCOCCn1c(=O)c2c(nc3n2CCN3c2ccc(C)cc2)n(C)c1=O > 76.9 µM
CCCC(=O)Nc1c(O)c2ccccc2[nH]c1=O > 76.9 µM
CCOC(=O)N(Cc1ccccc1)C(C(=O)O)C(C(=O)O)N(Cc1ccccc1)C(=O)OCC (centres undefined) > 76.9 µM
COc1c(F)c(F)c(-c2csc(N)n2)c(F)c1F > 76.9 µM
N#Cc1cc2c(=O)n3ccccc3nc2n(CCCn2ccnc2)c1=N > 76.9 µM
COc1cc(-c2nnc(SCc3cc(=O)oc4cc(C)ccc34)o2)cc(OC)c1OC > 76.9 µM
CCN(CC)CCNC(=O)CS(=O)Cc1nc(-c2ccc(Cl)cc2)oc1C (centres undefined) > 76.9 µM
Fc1ccc(-n2c(Cc3ccccc3)nnc2SCc2nc(-c3cccs3)no2)cc1 > 76.9 µM
CCOc1ccccc1-c1nc(-c2ccc(C)nc2OC)no1 > 76.9 µM
O=S(=O)(NCc1ccco1)c1cccc(S(=O)(=O)N2CCOCC2)c1 > 76.9 µM
Cc1cc(C)c(C#N)c(N2CCCC2)n1 > 76.9 µM
O=C(CCN1CCN(c2ccc(Cl)cc2)CC1)Nc1ccccc1F > 76.9 µM
CCOc1ccc2c(c1)c1nnc(SCC3CCCO3)nc1n2C (centres undefined) > 76.9 µM
O=C(O)CN(c1ccc2c(c1)OCCO2)S(=O)(=O)c1ccccc1 > 76.9 µM
O=C(N1CCCC1)n1c(Cc2ccccc2)nc2ccccc21 > 76.9 µM
CCN1CCCC1CNC(=O)Cn1cccc1C(=O)c1ccccc1 (centres undefined) > 76.9 µM
COc1ccc(N2CCN(C(=O)CSc3nnc(-c4cccnc4)n3-c3ccccc3)CC2)cc1 > 76.9 µM
O=C(Nc1nc2nc(-c3ccccc3)cc(-c3ccccc3)n2n1)c1ccco1 > 76.9 µM
Nn1cnnc1SC1CCCCC1NS(=O)(=O)c1ccccc1 (centres undefined) > 76.9 µM
CCCN(CCC)CCNC(=O)Cn1cnc2sc(C)c(S(=O)(=O)N3CCOCC3)c2c1=O > 76.9 µM
CC(C)C1C(C#N)=C(N)Oc2n[nH]c(-c3ccccc3)c21 (centres undefined) > 76.9 µM
COc1cccc(=O)c2c(C)n(C)c(C)c12 > 76.9 µM
CC1=C(C(N)=O)C(c2ccc(Cl)cc2)NC(=O)N1 (centres undefined) > 76.9 µM
COc1cccc(OCC(=O)NC2CCCCC2)c1 > 76.9 µM
CCC1Oc2ccccc2N(CC(=O)NCCN2CCc3ccccc3C2)C1=O (centres undefined) > 76.9 µM
c1ccc2[nH]c(-c3cscn3)nc2c1 > 76.9 µM
COCc1[nH]nc2c1C(c1ccc(F)cc1F)C(C#N)=C(N)O2 (centres undefined) > 76.9 µM
CC(=O)OC(C(=O)NC1CCCCC1)c1ccc(C#N)cc1 (centres undefined) > 76.9 µM
O=c1cc(-c2ccccc2)c2ccccc2[nH]1 > 76.9 µM
O=S(=O)(c1ccc2ccccc2c1)N1CCN(S(=O)(=O)N2CCOCC2)CC1 > 76.9 µM
CCN1CCN(c2ccc(-n3c(C)nc4c(cnn4-c4ccccc4Cl)c3=O)cc2)CC1
c1ccc2c(c1)Cn1nc(Cc3nc4c(s3)CCCC4)nc1-2 > 76.9 µM
CCn1cc(C(=O)OC(C)C(=O)Nc2c(C)n(C)n(-c3ccccc3)c2=O)c(=O)c2ccc(C)nc21 (centres undefined) > 76.9 µM
COc1ccc(-n2c(SCC(=O)NCc3cccs3)nnc2-c2ccoc2C)cc1 > 76.9 µM
O=C(NCc1nnc(SCC(=O)N2CCCC2)o1)c1ccccc1F > 76.9 µM
COc1ccc(NC2=Nc3ccccc3CC2)cc1 > 76.9 µM
COCCCNC(=O)C1CCC(=O)N1Cc1ccccc1Cl (centres undefined) > 76.9 µM
COc1ccc(F)cc1S(=O)(=O)Nc1ccc(C)cc1 > 76.9 µM
COc1ccc(C2CC(c3ccc(Br)cc3)Nc3nc(N)nn32)cc1 (centres undefined) > 76.9 µM
CC(=O)Nc1nc(-c2ccc(Br)s2)cs1 > 76.9 µM
c1ccc(CNc2ncnc3ccccc23)cc1 > 76.9 µM
N=c1n(Cc2ccccc2)c2ccccc2n1CC(O)COc1ccccc1 (centres undefined) > 76.9 µM
CC(C)OCCCN1CN(S(=O)(=O)c2ccccc2)c2nc3ccccc3nc21 > 76.9 µM
Cc1nn2c(N)csc2nc1=O > 76.9 µM
Cc1ccc2cc3cc(C(=O)NCCC(C)C)oc3nc2c1 > 76.9 µM
CCn1c(SCC(=O)Nc2nc(C)cs2)nnc1-c1cccnc1 > 76.9 µM
Cc1[nH]c(=O)[nH]c(=O)c1CSc1nnc(CCCCCNC(=O)OC(C)(C)C)o1 > 76.9 µM
C=CCOC(=O)Nc1c(C(=O)OC)[nH]c2ccc(Cl)cc12 > 76.9 µM
COc1ccc(-c2nnn(CC(=O)NC3CCCc4ccccc43)n2)cc1OC (centres undefined) > 76.9 µM
CCC(=O)Nc1c2c(nn1-c1ccc(C)cc1C)CSC2 > 76.9 µM
O=C(CC1OC(=O)c2ccccc21)NC1CCCCC1 (centres undefined) > 76.9 µM
CCOC(=O)c1[nH]c(C)c(C(=O)N2CCN(c3ccccc3)CC2)c1C > 76.9 µM
COc1cc(NC(=O)c2ccco2)c(OC)cc1NC(=O)Nc1cccc(Cl)c1 > 76.9 µM
O=C(Nc1cccc(C(F)(F)F)c1)c1cc(S(=O)(=O)N2CCCCC2)ccc1N1CCOCC1 > 76.9 µM
C/C(Cl)=C\CSc1nnc2n(N)c(=O)c3ccccc3n12 > 76.9 µM
CCOC(=O)CCc1c(C)c2ccc(OCC(=O)N(CC)CC)c(C)c2oc1=O > 76.9 µM

— PubChem BioAssay AID360 (National Center for Advancing Translational Sciences (NCATS), 2006)
